Assay [1] concerns the target GST-importin α5 fusion protein (human) (UniProt P52294). Put plainly: pull-down; recombinant GST-importin α5 immobilised on Glutathione-Sepharose 4B (5 μg of beads) incubated with pre-cleared lysates of HeLa cells overexpressing Flag-tagged OGT constructs, 2 h at 4 °C; bound OGT detected with anti-Flag antibody; only the target purified.
Assay [2] deals with Myc-tagged importin β (human) (UniProt Q14974). Put plainly: co-IP; HeLa cells co-transfected with Flag-tagged OGT constructs and Myc-tagged importin α or β; lysates immunoprecipitated with anti-Flag or with anti-Myc antibody, the partner detected by western blot; co-IP buffer 50 mM Tris-HCl pH 7.4, 150 mM NaCl, 0.5% NP-40, 4 °C; beads washed three times (stringently in Fig. 4a,b).

Protein sequences, listed by entry. Tags and fused reporters are not part of them.
UniProt P52294: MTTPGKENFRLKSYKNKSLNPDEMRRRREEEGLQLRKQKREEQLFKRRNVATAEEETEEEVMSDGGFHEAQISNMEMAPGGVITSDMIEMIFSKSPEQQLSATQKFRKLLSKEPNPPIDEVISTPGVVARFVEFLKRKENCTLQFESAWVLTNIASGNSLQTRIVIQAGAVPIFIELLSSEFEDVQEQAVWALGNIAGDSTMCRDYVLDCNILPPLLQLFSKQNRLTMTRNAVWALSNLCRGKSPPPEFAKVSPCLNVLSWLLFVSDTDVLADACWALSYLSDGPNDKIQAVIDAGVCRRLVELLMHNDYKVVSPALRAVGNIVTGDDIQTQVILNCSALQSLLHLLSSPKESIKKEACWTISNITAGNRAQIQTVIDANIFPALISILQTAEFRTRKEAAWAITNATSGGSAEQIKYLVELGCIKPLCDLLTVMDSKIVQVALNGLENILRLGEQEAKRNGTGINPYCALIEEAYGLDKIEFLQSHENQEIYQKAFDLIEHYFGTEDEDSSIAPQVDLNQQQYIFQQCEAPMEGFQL
UniProt Q14974: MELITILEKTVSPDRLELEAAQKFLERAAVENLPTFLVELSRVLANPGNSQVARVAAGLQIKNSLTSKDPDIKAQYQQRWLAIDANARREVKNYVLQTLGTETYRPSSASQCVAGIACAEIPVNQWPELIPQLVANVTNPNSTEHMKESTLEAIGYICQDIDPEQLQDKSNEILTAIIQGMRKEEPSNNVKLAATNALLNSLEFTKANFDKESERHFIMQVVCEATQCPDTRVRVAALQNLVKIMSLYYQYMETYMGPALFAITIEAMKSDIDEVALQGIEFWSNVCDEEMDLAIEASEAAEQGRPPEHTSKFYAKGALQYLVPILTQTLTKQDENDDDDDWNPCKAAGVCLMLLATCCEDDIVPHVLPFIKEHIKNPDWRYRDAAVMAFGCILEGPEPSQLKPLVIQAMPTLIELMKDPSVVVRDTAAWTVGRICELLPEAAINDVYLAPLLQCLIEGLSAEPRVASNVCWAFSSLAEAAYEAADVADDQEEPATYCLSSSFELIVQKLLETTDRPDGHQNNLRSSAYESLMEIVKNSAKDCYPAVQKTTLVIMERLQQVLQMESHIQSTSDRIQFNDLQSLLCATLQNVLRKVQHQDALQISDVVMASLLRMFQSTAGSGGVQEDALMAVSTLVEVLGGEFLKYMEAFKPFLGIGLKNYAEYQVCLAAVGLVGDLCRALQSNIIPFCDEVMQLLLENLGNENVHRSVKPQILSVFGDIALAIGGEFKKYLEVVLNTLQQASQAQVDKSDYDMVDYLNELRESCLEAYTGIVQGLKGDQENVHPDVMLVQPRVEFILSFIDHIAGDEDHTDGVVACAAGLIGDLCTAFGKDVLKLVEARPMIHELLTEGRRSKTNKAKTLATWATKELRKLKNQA
UniProt O00505: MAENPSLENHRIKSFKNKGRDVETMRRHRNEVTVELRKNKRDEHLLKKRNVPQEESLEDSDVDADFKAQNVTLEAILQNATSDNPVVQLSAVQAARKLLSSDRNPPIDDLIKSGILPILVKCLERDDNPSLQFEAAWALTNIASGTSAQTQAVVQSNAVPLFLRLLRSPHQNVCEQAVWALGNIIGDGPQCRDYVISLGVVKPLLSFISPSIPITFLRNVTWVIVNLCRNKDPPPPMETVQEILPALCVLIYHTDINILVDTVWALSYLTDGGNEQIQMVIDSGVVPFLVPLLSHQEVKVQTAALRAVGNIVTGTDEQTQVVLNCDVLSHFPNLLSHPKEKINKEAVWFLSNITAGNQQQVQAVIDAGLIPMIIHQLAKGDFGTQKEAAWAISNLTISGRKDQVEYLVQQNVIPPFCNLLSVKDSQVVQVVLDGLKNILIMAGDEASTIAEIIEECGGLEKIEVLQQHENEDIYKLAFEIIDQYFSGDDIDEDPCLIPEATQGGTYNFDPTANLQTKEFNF
UniProt O00629: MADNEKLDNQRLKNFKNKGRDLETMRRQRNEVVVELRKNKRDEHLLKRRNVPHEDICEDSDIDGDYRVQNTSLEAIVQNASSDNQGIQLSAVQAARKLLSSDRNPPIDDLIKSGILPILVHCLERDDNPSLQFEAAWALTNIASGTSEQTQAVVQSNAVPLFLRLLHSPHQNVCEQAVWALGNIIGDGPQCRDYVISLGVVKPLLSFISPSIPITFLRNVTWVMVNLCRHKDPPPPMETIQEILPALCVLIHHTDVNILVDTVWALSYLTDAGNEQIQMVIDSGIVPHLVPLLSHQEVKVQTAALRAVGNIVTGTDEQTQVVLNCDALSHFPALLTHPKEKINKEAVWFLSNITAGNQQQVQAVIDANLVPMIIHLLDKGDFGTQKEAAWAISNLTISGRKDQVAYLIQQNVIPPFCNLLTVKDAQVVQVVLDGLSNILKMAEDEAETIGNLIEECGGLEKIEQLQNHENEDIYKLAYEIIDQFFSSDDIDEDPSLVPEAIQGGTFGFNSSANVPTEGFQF

Assay [3] has as its target Myc-tagged importin α7 (human) (UniProt O60684). Described as above.
Assay [4] addresses Myc-tagged importin α4 (human) (UniProt O00505). The description is as above.
Assay [5] deals with Myc-tagged importin α5 (human) (UniProt P52294). The description is as above.
The target in assay [6] is Myc-tagged importin α3 (human) (UniProt O00629). The description is as above.
The target in assay [7] is Myc-tagged importin α5 (human) (UniProt P52294). In words: co-IP; HeLa cells overexpressing Myc-tagged importin α5; immunoprecipitated with anti-Myc antibody; endogenous OGT detected with an anti-OGT antibody.
Assay [8] deals with T1, Flag-tagged WT-OGT (human O-GlcNAc transferase) (human) (UniProt O15294).
T1 sequence: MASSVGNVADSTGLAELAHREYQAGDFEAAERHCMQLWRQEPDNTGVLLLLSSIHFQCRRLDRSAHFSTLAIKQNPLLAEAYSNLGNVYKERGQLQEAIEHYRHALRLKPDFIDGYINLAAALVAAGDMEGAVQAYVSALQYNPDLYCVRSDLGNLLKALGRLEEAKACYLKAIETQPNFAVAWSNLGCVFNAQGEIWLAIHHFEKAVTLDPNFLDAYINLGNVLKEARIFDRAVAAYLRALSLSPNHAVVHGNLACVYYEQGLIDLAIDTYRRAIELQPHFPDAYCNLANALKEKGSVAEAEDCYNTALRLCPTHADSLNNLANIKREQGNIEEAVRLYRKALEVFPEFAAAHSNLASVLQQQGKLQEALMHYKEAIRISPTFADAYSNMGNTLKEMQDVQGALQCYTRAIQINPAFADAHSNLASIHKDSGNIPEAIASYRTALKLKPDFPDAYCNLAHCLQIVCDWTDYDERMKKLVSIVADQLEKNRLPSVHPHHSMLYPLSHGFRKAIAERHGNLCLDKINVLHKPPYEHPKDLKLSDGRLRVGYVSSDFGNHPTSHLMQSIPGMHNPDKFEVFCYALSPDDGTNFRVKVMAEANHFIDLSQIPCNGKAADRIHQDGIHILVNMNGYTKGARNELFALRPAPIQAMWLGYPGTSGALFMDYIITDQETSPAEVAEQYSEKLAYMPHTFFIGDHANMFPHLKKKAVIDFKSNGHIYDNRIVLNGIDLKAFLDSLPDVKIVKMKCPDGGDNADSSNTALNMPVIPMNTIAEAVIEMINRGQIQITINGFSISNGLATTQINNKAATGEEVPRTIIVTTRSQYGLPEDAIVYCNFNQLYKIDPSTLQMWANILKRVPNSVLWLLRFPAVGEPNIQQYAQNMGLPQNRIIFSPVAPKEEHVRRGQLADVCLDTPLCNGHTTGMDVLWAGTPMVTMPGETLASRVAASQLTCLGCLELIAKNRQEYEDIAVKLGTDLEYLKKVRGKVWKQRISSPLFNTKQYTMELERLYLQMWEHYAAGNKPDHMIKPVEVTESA
Put plainly: co-IP; Flag-tagged WT-OGT or Mono-OGT immunoprecipitated; endogenous OGT looked for (Supplementary Fig. 2).

The target of assay [9] is T2, Flag-tagged Mono-OGT (OGT-W198E, I201D) (human) (UniProt O15294).
T2 sequence: T1 sequence with W198E, I201D
The assay is described as above.

Substitutions are numbered along the chain they refer to. Results are given in words; binding and its absence hold for the method and conditions named. In cells and extracts the contact can be indirect. Some entries that bind do so weakly or less than the wild type. For part of these data: Tags and fused reporters may be left off the sequences shown.

B1: Flag-tagged WT-OGT (human O-GlcNAc transferase) (enzyme, UniProt O15294-3 1-1036)
chain: T1 sequence
Take B1: the binding result in assay [1] is reported as “binds”; in assay [2] it was “no binding”; in assay [3], “no binding”; in assay [4], “no binding”; in assay [5] it was “binds”; in assay [6] it was “no binding”.

B2: endogenous OGT (enzyme, UniProt O15294 1-1046)
chain: MASSVGNVADSTEPTKRMLSFQGLAELAHREYQAGDFEAAERHCMQLWRQEPDNTGVLLLLSSIHFQCRRLDRSAHFSTLAIKQNPLLAEAYSNLGNVYKERGQLQEAIEHYRHALRLKPDFIDGYINLAAALVAAGDMEGAVQAYVSALQYNPDLYCVRSDLGNLLKALGRLEEAKACYLKAIETQPNFAVAWSNLGCVFNAQGEIWLAIHHFEKAVTLDPNFLDAYINLGNVLKEARIFDRAVAAYLRALSLSPNHAVVHGNLACVYYEQGLIDLAIDTYRRAIELQPHFPDAYCNLANALKEKGSVAEAEDCYNTALRLCPTHADSLNNLANIKREQGNIEEAVRLYRKALEVFPEFAAAHSNLASVLQQQGKLQEALMHYKEAIRISPTFADAYSNMGNTLKEMQDVQGALQCYTRAIQINPAFADAHSNLASIHKDSGNIPEAIASYRTALKLKPDFPDAYCNLAHCLQIVCDWTDYDERMKKLVSIVADQLEKNRLPSVHPHHSMLYPLSHGFRKAIAERHGNLCLDKINVLHKPPYEHPKDLKLSDGRLRVGYVSSDFGNHPTSHLMQSIPGMHNPDKFEVFCYALSPDDGTNFRVKVMAEANHFIDLSQIPCNGKAADRIHQDGIHILVNMNGYTKGARNELFALRPAPIQAMWLGYPGTSGALFMDYIITDQETSPAEVAEQYSEKLAYMPHTFFIGDHANMFPHLKKKAVIDFKSNGHIYDNRIVLNGIDLKAFLDSLPDVKIVKMKCPDGGDNADSSNTALNMPVIPMNTIAEAVIEMINRGQIQITINGFSISNGLATTQINNKAATGEEVPRTIIVTTRSQYGLPEDAIVYCNFNQLYKIDPSTLQMWANILKRVPNSVLWLLRFPAVGEPNIQQYAQNMGLPQNRIIFSPVAPKEEHVRRGQLADVCLDTPLCNGHTTGMDVLWAGTPMVTMPGETLASRVAASQLTCLGCLELIAKNRQEYEDIAVKLGTDLEYLKKVRGKVWKQRISSPLFNTKQYTMELERLYLQMWEHYAAGNKPDHMIKPVEVTESA
Turning to B2, the figures for the binding result in assay [7], in [8] and in assay [9] were “binds”, “binds” and “binds weakly”, respectively.
